Results published in the supplement of paper PMC4604168 (melanoma cell lines).
Some of the results follow. Single values are uncertain, as repeats are few or missing.

Assays:
Assay in all cases: cell count relative to DMSO control; melanoma cells; higher = more viable cells
Settings in all cases: library dose: standard library concentration; 72 h
501Mel = system: 501Mel
A101D = system: A101D
A2058 = system: A2058
A375 = system: A375
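Note: cells treated in 1,536-well plates, then fixed and DAPI-stained, with nuclei counted from automated high-throughput microscope images.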

Structure (SMILES) | cell count (501Mel) [%] | cell count (A101D) [%] | cell count (A2058) [%] | cell count (A375) [%]
C[C@]1(O)C[C@@H](c2nc(-c3ccc4ccc(-c5ccccc5)nc4c3)c3c(N)nccn32)C1 + COc1ccc2c(c1)CCC1C2CCC2(C)C(NCCCCCCN3C(=O)C=CC3=O)CCC12 [U73122] (first compound 2 µM, partner dose 2 µM) | 97.7 | 83.8 | 62.8 | 83.7
COc1cc([C@@H]2c3cc4c(cc3[C@@H](O[C@@H]3O[C@@H]5CO[C@@H](C)O[C@H]5[C@H](O)[C@H]3O)[C@H]3COC(=O)[C@H]23)OCO4)cc(OC)c1O [etoposide] + c1cc(-c2cnn3cc(-c4ccc(OCCN5CCCCC5)cc4)cnc23)ccn1 [Dorsomorphin] (first compound 0.1 µM, partner dose 2 µM) | 43 | 76.1 | 53.7 | 68.4
Cn1cnc2c(F)c(Nc3ccc(Br)cc3Cl)c(C(=O)NOCCO)cc21 [selumetinib] + N#Cc1c(O)c2c(-c3ccc(-c4ccccc4O)cc3)csc2[nH]c1=O [A769662] (first compound 0.075 µM, partner dose 10 µM) | 34.6 | 82.1 | 91.2 | 110
C[C@]1(O)C[C@@H](c2nc(-c3ccc4ccc(-c5ccccc5)nc4c3)c3c(N)nccn32)C1 + COC(=O)c1sccc1S(=O)(=O)Nc1ccc(Nc2ccccc2)cc1OC [GSK0660] (first compound 2 µM, partner dose 5 µM) | 77.9 | 104 | 91.1 | 78.8
CCN(CC)CCNC(=O)c1c(C)[nH]c(/C=C2\C(=O)Nc3ccc(F)cc32)c1C [sunitinib] + CCc1ccc(CCOc2ccc(CC3SC(=O)NC3=O)cc2)nc1 [pioglitazone] (first compound 2 µM, partner dose 10 µM) | 21.8 | 74 | 60.8 | 160
Cn1cnc2c(F)c(Nc3ccc(Br)cc3Cl)c(C(=O)NOCCO)cc21 [selumetinib] + COC(=O)c1sccc1S(=O)(=O)Nc1ccc(Nc2ccccc2)cc1OC [GSK0660] (first compound 0.075 µM, partner dose 5 µM) | 47 | 69.4 | 99.8 | 88.9
C[C@]1(O)C[C@@H](c2nc(-c3ccc4ccc(-c5ccccc5)nc4c3)c3c(N)nccn32)C1 + CCCCCCCCCCCC1=C(O)C(=O)C=C(O)C1=O [Embelin] (first compound 2 µM, partner dose 6 µM) | 78.1 | 94.2 | 88.8 | 97.7
Cn1cnc2c(F)c(Nc3ccc(Br)cc3Cl)c(C(=O)NOCCO)cc21 [selumetinib] + O=C(Nc1ccccc1)c1cc([N+](=O)[O-])ccc1Cl [GW9662] (first compound 0.075 µM, partner dose 10 µM) | 38 | 70.1 | 89.7 | 102
COc1cc([C@@H]2c3cc4c(cc3[C@@H](O[C@@H]3O[C@@H]5CO[C@@H](C)O[C@H]5[C@H](O)[C@H]3O)[C@H]3COC(=O)[C@H]23)OCO4)cc(OC)c1O [etoposide] + O=C(O)C(=O)Nc1sc2c(c1C(=O)O)CCNC2 [TCS401] (first compound 0.1 µM, partner dose 8.33333 µM) | 59.2 | 76.4 | 83 | 110
CCN(CC)CCNC(=O)c1c(C)[nH]c(/C=C2\C(=O)Nc3ccc(F)cc32)c1C [sunitinib] + CC(C)CCN1c2nc(Nc3cc(F)c(O)c(F)c3)ncc2N(C)C(=O)C1C [BID1870] (first compound 2 µM, partner dose 1 µM) | 16.8 | 54.8 | 51.1 | 103
CCN(CC)CCNC(=O)c1c(C)[nH]c(/C=C2\C(=O)Nc3ccc(F)cc32)c1C [sunitinib] + COc1ccc2c(c1)CCC1C2CCC2(C)C(NCCCCCCN3C(=O)C=CC3=O)CCC12 [U73122] (first compound 2 µM, partner dose 2 µM) | 38.1 | 31.9 | 47.4 | 79.1
Cn1cnc2c(F)c(Nc3ccc(Br)cc3Cl)c(C(=O)NOCCO)cc21 [selumetinib] + CC(C)CCN1c2nc(Nc3cc(F)c(O)c(F)c3)ncc2N(C)C(=O)C1C [BID1870] (first compound 0.075 µM, partner dose 1 µM) | 44.1 | 59.3 | 95.8 | 90.6
C[C@]1(O)C[C@@H](c2nc(-c3ccc4ccc(-c5ccccc5)nc4c3)c3c(N)nccn32)C1 + Oc1cc(-c2nc(-c3ccccc3)[nH]c2-c2ccncc2)ccc1Cl [L779450] (first compound 2 µM, partner dose 1 µM) | 70.6 | 77.4 | 90 | 71.3
Cn1cnc2c(F)c(Nc3ccc(Br)cc3Cl)c(C(=O)NOCCO)cc21 [selumetinib] + COc1cc2ncnc(Nc3ccc(Oc4ccccc4)cc3)c2cc1OC [SrcI1] (first compound 0.075 µM, partner dose 10 µM) | 35 | 71.8 | 76.2 | 108
CCN(CC)CCNC(=O)c1c(C)[nH]c(/C=C2\C(=O)Nc3ccc(F)cc32)c1C [sunitinib] + CCN(CC)CCCCNc1ncc2cc(-c3cc(OC)cc(OC)c3)c(NC(=O)NC(C)(C)C)nc2n1 [PD173074] (first compound 2 µM, partner dose 0.5 µM) | 15.2 | 61.7 | 67.5 | 70.8
C[C@]1(O)C[C@@H](c2nc(-c3ccc4ccc(-c5ccccc5)nc4c3)c3c(N)nccn32)C1 + Cc1cc([N+](=O)[O-])ccc1NS(=O)(=O)c1cc(Cl)ccc1Cl [FH535] (first compound 2 µM, partner dose 5 µM) | 57.2 | 70.4 | 84.8 | 74.6
COc1cc([C@@H]2c3cc4c(cc3[C@@H](O[C@@H]3O[C@@H]5CO[C@@H](C)O[C@H]5[C@H](O)[C@H]3O)[C@H]3COC(=O)[C@H]23)OCO4)cc(OC)c1O [etoposide] + Cc1cc([N+](=O)[O-])ccc1NS(=O)(=O)c1cc(Cl)ccc1Cl [FH535] (first compound 0.1 µM, partner dose 5 µM) | 70.3 | 84 | 79 | 82.8
Cn1cnc2c(F)c(Nc3ccc(Br)cc3Cl)c(C(=O)NOCCO)cc21 [selumetinib] + CCCCCCCCCCCC1=C(O)C(=O)C=C(O)C1=O [Embelin] (first compound 0.075 µM, partner dose 6 µM) | 38.2 | 72.2 | 84.1 | 99.8
C[C@]1(O)C[C@@H](c2nc(-c3ccc4ccc(-c5ccccc5)nc4c3)c3c(N)nccn32)C1 + c1cc(-c2cnn3cc(-c4ccc(OCCN5CCCCC5)cc4)cnc23)ccn1 [Dorsomorphin] (first compound 2 µM, partner dose 2 µM) | 48.1 | 87 | 75.8 | 75
CCN(CC)CCNC(=O)c1c(C)[nH]c(/C=C2\C(=O)Nc3ccc(F)cc32)c1C [sunitinib] + O=C1NC(=O)/C(=C/c2ccc(-c3ccc(F)cc3O)o2)S1 [AS252424] (first compound 2 µM, partner dose 5 µM) | 37.4 | 71.8 | 93 | 122
CCN(CC)CCNC(=O)c1c(C)[nH]c(/C=C2\C(=O)Nc3ccc(F)cc32)c1C [sunitinib] + CCCCCCCCCCCC1=C(O)C(=O)C=C(O)C1=O [Embelin] (first compound 2 µM, partner dose 6 µM) | 42.1 | 51.3 | 87 | 114
Cn1cnc2c(F)c(Nc3ccc(Br)cc3Cl)c(C(=O)NOCCO)cc21 [selumetinib] + Oc1cc(-c2nc(-c3ccccc3)[nH]c2-c2ccncc2)ccc1Cl [L779450] (first compound 0.075 µM, partner dose 1 µM) | 76.8 | 62 | 67.5 | 67.5
C[C@]1(O)C[C@@H](c2nc(-c3ccc4ccc(-c5ccccc5)nc4c3)c3c(N)nccn32)C1 + Oc1nc(-c2ccc(C(F)(F)F)cc2)nc2c1CSCC2 [XAV939] (first compound 2 µM, partner dose 10 µM) | 69.6 | 79.7 | 84.1 | 85.5
CCN(CC)CCNC(=O)c1c(C)[nH]c(/C=C2\C(=O)Nc3ccc(F)cc32)c1C [sunitinib] + COC(=O)c1sccc1S(=O)(=O)Nc1ccc(Nc2ccccc2)cc1OC [GSK0660] (first compound 2 µM, partner dose 5 µM) | 40.2 | 61.2 | 85.2 | 122
